According to PubChem BioAssay AID686979 (National Center for Advancing Translational Sciences (NCATS), 2013):
Among all 420,000 compounds or so, about 50,000 (12%) were called active. Inconclusive results, whose numbers are uncertain, are shown with a selection of clear calls. Calls follow the shape of the dose curve; as a rule, active = well fitted inhibition curve with a large enough effect; inconclusive = small, poorly fitted or top-dose-only effect; inactive = flat fitted curve, though single readings scatter. No potency is given beside an inconclusive call; the fits are too rough.

Experiment: qHTS for Inhibitors of human tyrosyl-DNA phosphodiesterase 1 (TDP1): qHTS in cells in presence of CPT; also: nearly all actives have a fitted effect of over 55% in size
Conditions: chicken DT40 Tdp1-/-;hTDP1 cells + 20 nM CPT, ATP luminescence, 48 h; activity change, negative = growth inhibition: at 46.2 µM (top of the series)
Outline: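 Chicken DT40 Tdp1-/- cells stably complemented with human TDP1 were seeded at 400 cells/well in medium containing 20 nM camptothecin, exposed to pin-transferred compounds, and grown at 37 °C for at least 48 hr. Viability was read as ATP luminescence.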
% is scaled to controls: 0 for no effect and ±100 for the full control effect; potency is read from the fitted curve at half-maximal effect; tags tell the direction and shape of the fitted curve.

| Structure (SMILES) | Potency | activity change, negative = growth inhibition |
| --- | --- | --- |
| Cc1ccc2c(c1)c1c(n2CC(O)Cn2c(C)nc3ccccc32)/C(=N\O)CCC1 (stereo unspecified) | active: 23.1 µM |  |
| COc1ccc2cc3c(N)nn(C(=O)c4ccccc4[N+](=O)[O-])c3nc2c1 | active: 2.59 µM |  |
| Cc1cccc2c1N(C(=O)c1ccco1)C(C)(C)c1ssc(=S)c1-2 | inconclusive [inhibitor, single point] |  |
| Cn1c(SCCS(=O)(=O)c2ccc(Cl)cc2)nnc1-c1ccccc1 |  | inconclusive: -30.5% [inhibitor] |
| O=C(O)c1ccc2c(c1)OCCO2 |  | inactive: 7.5% |
| Cc1ccccc1C(=O)N1CCC(C(=O)Nc2cccc(S(=O)(=O)N3CCCCC3)c2)CC1 | inconclusive [inhibitor, partial curve] |  |
| O=C(c1ccc2nccnc2c1)N1CCCC(N2CCN(c3ccc(F)cc3)CC2)C1 (stereo unspecified) | inconclusive [inhibitor, partial curve] |  |
| O=S(=O)(Cc1nnnn1-c1ccccc1)c1ccc(F)cc1 |  | inactive: 7.33% |
| CN(C)c1ccc(/C=N/NC(=O)c2ccc(-n3cnnn3)cc2)cc1 |  | inactive: 6.16% |
| COCCCNC(=O)Cn1ccc(NC(=O)OCc2ccccc2)nc1=O |  | inactive: 1.56% |
| O=C(Nc1ccccc1Cl)C1CC(=O)N(Cc2ccco2)C1 (stereo unspecified) |  | inactive: 23.5% |
| COc1c(O)cc(O)c2c(=O)cc(-c3ccccc3)oc12 | inconclusive [inhibitor, single point] |  |
| CCCn1c(CCC(=O)Nc2ccc(OCC)cc2)nc2cccnc21 | inconclusive [inhibitor, single point] |  |
| CCOC(=O)c1c(C)oc2nc(C)nc(NCc3ccc(F)cc3)c12 | inconclusive [inhibitor, single point] |  |
| CC1CCN(S(=O)(=O)c2cccc(C(=O)N3CCN(c4ccc(F)cc4)CC3)c2)CC1 | active: 14.6 µM |  |
| Cc1nc(C)c(C(=O)NNS(=O)(=O)c2ccc3ccccc3c2)s1 | inconclusive [inhibitor, partial curve] |  |
| O=c1cc(/N=C/c2coc3cc(Br)ccc3c2=O)[nH]c(=S)[nH]1 | inconclusive [inhibitor, single point] |  |
| O=C(CSc1ccc(Cl)cc1)N1CCCC1 | inconclusive [inhibitor, single point] |  |
| COCc1cc(N2CCOCC2)nc(SCc2ccc(Cl)cc2)n1 |  | inactive: -18.2% |
| Cc1cc(C)c(C(=O)c2ccc(C(=O)NC(C)(C)C)cc2)c(C)c1 |  | inactive: -19.3% |
| CCOC(=O)N1CCN(C(=O)c2cc(COc3ccc(Cl)cc3OC)on2)CC1 | inconclusive [inhibitor, single point] |  |
| CC(=O)Nc1ccc(NS(=O)(=O)c2cccc3ccccc23)cc1 | inconclusive [inhibitor, partial curve] |  |
| O=C(NNC(=O)c1ccccc1O)c1ccc(Cl)c(S(=O)(=O)N2CCCCC2)c1 | inconclusive [inhibitor, single point] |  |

| Structure (SMILES) | Potency | activity change, negative = growth inhibition |
| --- | --- | --- |
| O=C(COC(=O)c1cc(S(=O)(=O)N2CCCCC2)ccc1N1CCOCC1)NC1CCS(=O)(=O)C1 (stereo unspecified) |  | inactive: 5.1% |
| COc1ccc(NC(=O)CSc2ccc3nnc(-c4ccccn4)n3n2)c(OC)c1 | inconclusive [inhibitor, single point] |  |
| Cc1ccc(NC(=S)N(Cc2cccs2)Cc2cc3cccc(C)c3[nH]c2=O)cc1 | active: 20.6 µM |  |
| COc1cccc(CNC(=O)C2CCCN2S(=O)(=O)c2ccc3c(c2)C(C)(C)C(=O)N3C)c1 (stereo unspecified) |  | inactive: -14.8% |
| COc1ccc(N2CCN(S(=O)(=O)CCNC(=O)COc3ccccc3OC)CC2)cc1 | inconclusive [inhibitor, partial curve] |  |
| c1ccc(CCc2nn3c(Cc4ccccc4)nnc3s2)cc1 | inconclusive [inhibitor, single point] |  |
| COc1ccccc1CNC(=O)CCc1nc2ccccc2c(=O)[nH]1 |  | inactive: -14.3% |
| Cc1nn(C)cc1S(=O)(=O)Nc1ccc(C(F)(F)F)cc1 |  | inactive: -4.01% |
| CCOc1ccc(CCNC(=O)CCCn2c(=O)c3cccn3c3ccccc32)cc1 | active: 18.4 µM |  |
| OCC[C@H]1C[C@H](O)[C@@H](O)[C@@]2(Cc3ccccc3O2)O1 |  | inactive: -2.5% |
| C/C(N)=C(/C#N)C(=O)CSc1nc2scc(-c3ccccc3)c2c(=O)n1C | inconclusive [inhibitor, partial curve, poor fit] |  |
| CCOc1ccc(Cl)cc1-c1cc(C(=O)Nc2cc(OC)ccc2OC)[nH]n1 | inconclusive [inhibitor, single point] |  |
| O=C(Nc1cccc(S(=O)(=O)N2CCCCC2)c1)c1ccc(S(=O)(=O)C(F)F)cc1 | inconclusive [inhibitor, single point] |  |
| Cc1nc(SCC(=O)c2ccc(Cl)s2)c2oc3ccccc3c2n1 | inconclusive [inhibitor, single point] |  |
| CCNC(COC(=O)c1ccc([N+](=O)[O-])cc1)C1CCCCC1 (stereo unspecified) | inconclusive [inhibitor, single point] |  |
| Cc1nn(Cc2ccccc2)c2ncccc12 | inconclusive [inhibitor, single point] |  |
| COC(=O)C1=C(C)N(Cc2ccco2)C(=O)N[C@@H]1c1ccco1 |  | inactive: -6.04% |
| CCOc1ccc(NC(=O)COC(=O)C2CCC(=O)N2)c([N+](=O)[O-])c1 (stereo unspecified) | inconclusive [inhibitor, full curve] |  |
| CC1(C(=O)NCc2ccccc2)CSCC(=O)N1Cc1cccc(F)c1 (stereo unspecified) |  | inactive: 2.19% |
| Cc1ccc(Cl)cc1NC(=O)C(C)n1nc(-c2ccccc2)ccc1=O (stereo unspecified) | inconclusive [inhibitor, single point] |  |
| CCOc1ccc2[nH]cc(S(=O)(=O)c3ccc(F)cc3)c(=O)c2c1 | active: 9.2 µM |  |
| CC(=O)Oc1c(C)c2c3c(c1OC(C)=O)[C@@H](C)CC[C@@H]3[C@@H](C)C[C@H]2C=C(C)C | inconclusive [inhibitor, single point] |  |
| Cc1ccc(-n2ncc3c(NCCC4=CCCCC4)ncnc32)cc1 | inconclusive [inhibitor, partial curve, poor fit] |  |
